In the supplement of paper PMC3334620:
In all, about 33,000 sequences were measured (“E-score (-0.5 to 0.5)”: median about -0.035, highest 2% from about 0.35 on). This is one part of the list.

These sequences were tested against T1, Pdr3 (UniProt P33200) (assay: PBM E-score (8-mer binding enrichment) (E-score (-0.5 to 0.5)); higher = stronger / more preferred TF binding; most listed sequences are background and not binding sites). Details: protein concentration: 200 nM; construct: GST-full length.
T1 sequence: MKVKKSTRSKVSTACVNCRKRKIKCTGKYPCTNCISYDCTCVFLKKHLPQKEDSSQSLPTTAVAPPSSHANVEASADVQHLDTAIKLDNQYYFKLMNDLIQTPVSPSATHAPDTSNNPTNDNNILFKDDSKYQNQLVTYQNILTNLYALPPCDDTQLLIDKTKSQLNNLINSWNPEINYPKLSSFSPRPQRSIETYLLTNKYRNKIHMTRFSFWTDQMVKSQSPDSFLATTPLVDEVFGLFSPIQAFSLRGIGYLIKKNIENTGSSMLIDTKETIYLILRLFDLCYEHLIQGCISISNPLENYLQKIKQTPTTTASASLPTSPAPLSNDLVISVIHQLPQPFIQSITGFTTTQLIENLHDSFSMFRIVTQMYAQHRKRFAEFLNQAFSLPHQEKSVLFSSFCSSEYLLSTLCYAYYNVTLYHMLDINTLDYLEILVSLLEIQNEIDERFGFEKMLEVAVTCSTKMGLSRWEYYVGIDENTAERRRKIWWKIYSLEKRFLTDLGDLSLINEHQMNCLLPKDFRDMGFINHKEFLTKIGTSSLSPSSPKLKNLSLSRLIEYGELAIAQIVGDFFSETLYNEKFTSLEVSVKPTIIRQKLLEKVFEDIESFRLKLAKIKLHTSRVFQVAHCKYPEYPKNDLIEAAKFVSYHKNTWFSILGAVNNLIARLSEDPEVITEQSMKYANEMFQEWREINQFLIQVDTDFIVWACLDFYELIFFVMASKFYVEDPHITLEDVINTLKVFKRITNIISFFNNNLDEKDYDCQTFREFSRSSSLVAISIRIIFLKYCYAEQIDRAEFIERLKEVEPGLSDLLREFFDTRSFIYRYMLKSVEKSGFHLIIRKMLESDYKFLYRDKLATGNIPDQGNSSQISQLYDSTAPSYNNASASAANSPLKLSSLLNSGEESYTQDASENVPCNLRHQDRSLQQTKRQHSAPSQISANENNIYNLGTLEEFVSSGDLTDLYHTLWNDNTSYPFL
In short: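 Masliner-normalised scans of fluorescent anti-GST signal were the basis for scoring. That signal came from GST-tagged yeast transcription factors applied at about 100-200 nM to double-stranded universal all-10-mer Agilent arrays on fresh or once-stripped slides. Each ungapped eight-base word, pooled with its reverse complement, received an E-score from the Universal PBM Analysis Suite.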

| Sequence | PBM E-score |
| --- | --- |
| AACGCGTT | 0.14 |
| GTTCCCCA | -0.173 |
| TAGGAACA | -0.0452 |
| GATGTGAA | -0.0111 |
| GATTCAAA | -0.124 |
| CATCCCAC | -0.0306 |
| ACTAATGG | 0.0371 |
| GATAGTGC | -0.0798 |
| CGGCGCCA | 0.171 |
| ACGCCCCG | 0.181 |
| CCTGACAC | -0.0728 |
| CAGAGCCG | 0.0998 |
| ATACCTAG | -0.0445 |
| AAGAGGAG | -0.0754 |
| AGTGTGTA | -0.121 |
| GAGTTATC | 0.159 |
| CACCTTTA | 0.0126 |
| GTAATTGA | 0.0657 |
| GATTTACC | 0.158 |
| CTAGCTAC | -0.233 |
| ATGGCAAT | -0.00119 |
| GACCGGGA | 0.304 |

| Sequence | PBM E-score |
| --- | --- |
| AATGTCCA | -0.11 |
| CAAATTCA | -0.0277 |
| AACAAGCT | 0.0568 |
| GTTTGGGA | -0.013 |
| ACACCACT | 0.108 |
| CCACCCGC | 0.296 |
| AGCACTGG | -0.111 |
| CCACTGAG | -0.158 |
| GATCCAAA | 0.064 |
| TACTACTA | 0.141 |
| AGCTCACC | -0.0527 |
| AGTCCGAG | 0.281 |
| ACAACCAT | 0.149 |
| ACACTCGT | -0.195 |
| CTCATCTA | -0.185 |
| TACCGGGA | 0.347 |
| AGTACAGA | -0.0546 |
| AACATTAA | -0.0603 |
| CGAATCAG | -0.133 |
| ACCGCATC | 0.198 |
| CGCGATTC | 0.254 |
| AGATCACC | 0.0531 |

| Sequence | PBM E-score |
| --- | --- |
| GACTCTTA | -0.135 |
| CCCTGAAC | -0.013 |
| CTCTGAGA | -0.238 |
| AGGCGTCC | -0.0756 |
| GGCGGAAC | 0.467 |
| CATCCAGC | -0.137 |
| CCATGGCC | -0.0466 |
| GAGCTAGA | -0.248 |
| AACAAAAG | -0.266 |
| CGTGTATA | -0.0324 |
| ATAGCGCA | -0.111 |
| AAGCGAAG | -0.0806 |
| ATGTCTTG | -0.0696 |
| AGTGAATG | 0.168 |
| ACAATCAT | -0.139 |
| GCGCAAGA | 0.0091 |
| TACGATCA | -0.0678 |
| CTGCCTTC | -0.0663 |
| GCTCACCC | 0.118 |
| CGGGTCAG | 0.285 |
| CGCGAAAG | -0.0147 |
| CTTACTAA | -0.0756 |

| Sequence | PBM E-score |
| --- | --- |
| GATGAGAC | 0.031 |
| CCTATTGA | -0.135 |
| AGACCTAT | -0.0458 |
| AAGCCCAT | -0.0885 |
| AACATCAT | -0.0867 |
| AAGGCCAA | -0.156 |
| TGACGCCA | -0.264 |
| GAGCCGAC | -0.104 |
| CGCCTATA | -0.018 |
| CCTACACC | -0.133 |
| GCCTTAGA | -0.136 |
| CATATGGA | -0.149 |
| AAATTAAT | -0.0501 |
| GACGGAGA | 0.322 |
| ACTAACCC | -0.0175 |
| AGTCATCG | -0.0299 |
| TCGTGTAA | -0.0424 |
| CTGAGAAG | -0.16 |
| ATTGCCCA | -0.0638 |
| GCGCCAGA | 0.00439 |
